Measurements published in the supplement of paper PMC12067230.
Single values of this set are uncertain.

Experiment: amyloid nucleation score relative to library mode (yeast Sup35 reporter selection) (log enrichment difference); higher = more amyloid nucleation; sequences are the first 22 residues of the Bri2 peptide extended by up to 12 random residues
Conditions: random library (experiment): 2;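 active = nucleation score significantly above 0 at FDR 0.05; inactive = not significantly above 0 or absent from output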
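Also: [psi-pin-] Saccharomyces cerevisiae expressing SupN fusions, induced by 100 µM Cu2SO4, selected 7 d at 30 °C without adenine and uracil, scored by deep sequencing of output versus input.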

| Sequence | amyloid nucleation score |
| --- | --- |
| EASNCFAIRHFENKFAVETLICFMIPEMFCCLFG | 4.92 |
| EASNCFAIRHFENKFAVETLICDCSVSPIFGCLW | 7.41 |
| EASNCFAIRHFENKFAVETLICLVFWFVGIKPQA | inactive |
| EASNCFAIRHFENKFAVETLICYRNSSLKPLFLP | inactive |
| EASNCFAIRHFENKFAVETLICGFGNRV | 6.85 |
| EASNCFAIRHFENKFAVETLICDVIITCKRIEIV | 4.36 |
| EASNCFAIRHFENKFAVETLICLDAWGLKLPVSE | 0.683 |
| EASNCFAIRHFENKFAVETLICGAILRVSDSVLC | 1.93 |
| EASNCFAIRHFENKFAVETLICGVGCWVRELVLW | inactive |
| EASNCFAIRHFENKFAVETLICVERWWKFLYIYH | inactive |
| EASNCFAIRHFENKFAVETLICIKQSSGVVGTRL | inactive |
| EASNCFAIRHFENKFAVETLICTKLVALISDLNW | inactive |
| EASNCFAIRHFENKFAVETLICLTSLTC | 5.24 |
| EASNCFAIRHFENKFAVETLICHKNMIDWAMPHF | -0.372 |
| EASNCFAIRHFENKFAVETLICPFI | inactive |
| EASNCFAIRHFENKFAVETLICCYESTAISHLSR | 3.65 |
| EASNCFAIRHFENKFAVETLICFVVPMNWTWIIT | 2.46 |
| EASNCFAIRHFENKFAVETLICQEVLCPARCGCR | inactive |
| EASNCFAIRHFENKFAVETLICLGMFCNLLSDMG | inactive |
| EASNCFAIRHFENKFAVETLICKETAKYSLYGCF | inactive |
| EASNCFAIRHFENKFAVETLICKGVAYHLIGKVY | inactive |
| EASNCFAIRHFENKFAVETLICRCVYI | inactive |
| EASNCFAIRHFENKFAVETLICFKEVDCLERYIH | inactive |

Same assay, conditions: random library (experiment): 3

| Sequence | amyloid nucleation score |
| --- | --- |
| EASNCFAIRHFENKFAVETLICKQWRFGNTMIGV | inactive |
| EASNCFAIRHFENKFAVETLICWTPNEKPRMLSS | inactive |
| EASNCFAIRHFENKFAVETLICMWWALMAGRCWT | inactive |
| EASNCFAIRHFENKFAVETLICWHTCWLWQWE | 2.39 |
| EASNCFAIRHFENKFAVETLICFGVQLVGEHRRV | 9.54 |
| EASNCFAIRHFENKFAVETLICVEESARSRDG | inactive |
| EASNCFAIRHFENKFAVETLICGVQLRFESVGVL | inactive |
| EASNCFAIRHFENKFAVETLICVRLCSTRLGVVL | inactive |
| EASNCFAIRHFENKFAVETLICYLQ | 7.73 |
| EASNCFAIRHFENKFAVETLICLERKSRLVLGWL | inactive |
| EASNCFAIRHFENKFAVETLICHQIPVGAMRILQ | inactive |
| EASNCFAIRHFENKFAVETLICKWLSSSS | inactive |
| EASNCFAIRHFENKFAVETLICKDGVNVYGKHIG | inactive |
| EASNCFAIRHFENKFAVETLICDRRVMVRYCLTE | inactive |
| EASNCFAIRHFENKFAVETLICYHWYEVMSRRFT | inactive |
| EASNCFAIRHFENKFAVETLICMMMSSPYRLRNT | inactive |
| EASNCFAIRHFENKFAVETLICFSDASGGVRRGS | 4.06 |
| EASNCFAIRHFENKFAVETLICLSVVTVRLGKVR | inactive |
| EASNCFAIRHFENKFAVETLICLTGRNWESRETS | 3.18 |

| Sequence | amyloid nucleation score |
| --- | --- |
| EASNCFAIRHFENKFAVETLICTRLLRSRSVVPC | inactive |
| EASNCFAIRHFENKFAVETLICTMPDNLRLDLLH | 3.24 |
| EASNCFAIRHFENKFAVETLICVVMLGF | inactive |
| EASNCFAIRHFENKFAVETLICVADMRGPSGGVW | inactive |
| EASNCFAIRHFENKFAVETLICRHWSVRRGVWPR | inactive |
| EASNCFAIRHFENKFAVETLICEIEDGSVIGIQS | inactive |
| EASNCFAIRHFENKFAVETLICVPMNVWGKLPGL | 6.07 |
| EASNCFAIRHFENKFAVETLICGALN | inactive |
| EASNCFAIRHFENKFAVETLICCYRVVRPLMSMW | inactive |
| EASNCFAIRHFENKFAVETLICETVVGILITQNG | inactive |
| EASNCFAIRHFENKFAVETLICVTLMVVCDQMSG | 2.8 |
| EASNCFAIRHFENKFAVETLICAFAVGQLRERGA | 1.41 |
| EASNCFAIRHFENKFAVETLICYSWASGFALLEL | inactive |
| EASNCFAIRHFENKFAVETLICVKPLTS | 0.0367 |
| EASNCFAIRHFENKFAVETLICCRGAKWSRRHQS | inactive |
| EASNCFAIRHFENKFAVETLICGFWSPCVRIPGR | 2.69 |
| EASNCFAIRHFENKFAVETLICYTLVSAVVSREC | 2.75 |
| EASNCFAIRHFENKFAVETLICFVVLISTRYSVR | inactive |
